According to the RNAGym collection of RNA variant scans (doi:10.1093/nar/gkz1192):
The source gives no read counts; variants with many changes may rest on few reads.

B1: CPEB3 Ribozyme (parent)
chain: UAACAGGGGGCCACAGCAGAAGCGUUCACGUCGCAGCCCCUGUCAGAUUCUGGUGAAUCUGCGAAUUCUGCUGUAUAUCUC

Variants of: B1
Assay: self-cleavage, relative activity (ratio to wild type); higher = more cleavage; in vitro, sequencing
How it was run: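 For each CPEB3 ribozyme variant, relative activity is its cleaved/total read fraction divided by the unmutated ribozyme's. Barcoded error-prone PCR libraries were transcribed by T7 RNA polymerase (5 hours, 37°C) and held in DNase I for 15 min before an EDTA stop, with cleavage occurring throughout. Template-switching reverse transcription and Illumina sequencing were used to read the RNAs. A 5-read minimum applied, and results are the mean of three batches.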

Row | Variant | self-cleavage
1 | A15G G24A A56C U58A A75G | 0.03
2 | A15G G24A U31C A64G U78C | 0.04
3 | A15G G24A U72C U74C | 0.33
4 | A15G G24C G36A U54C U67A | 0.05
5 | A15G G30A A77U | 0.22
6 | A15G G30A C37A A56G U58C | 0.08
7 | A15G G30A U41C G46A U69C | 0.08
8 | A15G G30U A77U | 0.12
9 | A15G G36A U58C C62U | 0.05
10 | A15G G36C A75G | 0.39
11 | A15G G36C U43C A45G A57G U67C C79U | 0.12
12 | A15G G36U C44U A56U U60C U76C | 0.1
13 | A15G G42C A47U A57U G63U A77C | 0.05
14 | A15G G53C U67C U80C | 0.18
15 | A15G G61A U66A U67A | 0.33
16 | A15G G61A U67C A75G | 0.05
17 | A15G G61C U76C U78C | 0.14
18 | A15G G63A U80C | 0.92
19 | A15G U25A C40U U43C A56G U66C G73C | 0.1
20 | A15G U25A U67C | 0.07
21 | A15G U25C A28G U43C U54A A56U | 0.07
22 | A15G U25C A28G U54C A56G | 0
23 | A15G U25C A28U A45G | 0.08
24 | A15G U25C A28U C32A | 0.11

Row | Variant | self-cleavage
25 | A15G U25C A28U C37G U69G | 0.2
26 | A15G U25C A35U | 0.22
27 | A15G U25C A35U U72C A75U | 0.25
28 | A15G U25C A45G U66C | 0.07
29 | A15G U25C A47G A64U U69C | 0.26
30 | A15G U25C A56U U72C | 0.46
31 | A15G U25C A57G U60C A64U U74A | 0.08
32 | A15G U25C A64G U67C | 0.2
33 | A15G U25C U41C U43C | 0.03
34 | A15G U25C U49C | 0.25
35 | A15G U25C U78A U80C | 0.32
36 | A15G U25G U43C U69C U74A | 0.28
37 | A15G U26A C40U | 0.26
38 | A15G U26A U31C U43C | 0.04
39 | A15G U26A U31C U48A U51G | 0.05
40 | A15G U26A U66C U69A | 0.15
41 | A15G U26A U67C U76C | 0.16
42 | A15G U26C A28U G33C U60C | 0.04
43 | A15G U26C A35G A47G U60C | 0.17
44 | A15G U26C A35U U51A A64U U66C | 0.04
45 | A15G U26C A56G | 0.3
46 | A15G U26C A57U | 0.18
47 | A15G U26C C32U U60A | 0.2
48 | A15G U26C C44A U60G | 0.05

Row | Variant | self-cleavage
49 | A15G U26C G30A U69A C81A | 0.26
50 | A15G U26C U60C A64U | 0.09
51 | A15G U26C U72C | 0.73
52 | A15G U26G U69C | 0.39
53 | A15G U26G U72C | 0.57
54 | A15G U31A A35U A65G U72A | 0.07
55 | A15G U31A A35U U41G A57G A75G A77G | 0.17
56 | A15G U31A G52A A56G | 0.87
57 | A15G U31A U41G A75G | 0.05
58 | A15G U31C C32A A56G G73C | 0.22
59 | A15G U31C C59A | 0.04
60 | A15G U31C U41A A45G U54C U69G | 0.22
61 | A15G U31C U48C G70A | 0.04
62 | A15G U31C U49C G55U U67C A75G | 0.07
63 | A15G U31C U51C U78C U80A | 0.17
64 | A15G U31C U58A | 0.47
65 | A15G U31G A47G U48C A57U | 0.09
66 | A15G U31G U67C | 0.19
67 | A15G U41A A56G U60A | 0.07
68 | A15G U41A A64U | 0.26
69 | A15G U41A G53A | 0.96
70 | A15G U41A G55U | 0.23
71 | A15G U41A U49C | 0.28
72 | A15G U41A U54A U60A | 0.07

Row | Variant | self-cleavage
73 | A15G U41A U60A | 0.27
74 | A15G U41A U60C U72C | 0.11
75 | A15G U41A U66C | 0.08
76 | A15G U41A U67A | 0.16
77 | A15G U41A U69A | 0.16
78 | A15G U41C A47U U66A U67C U76C | 0.03
79 | A15G U41C U48C | 0.38
80 | A15G U41C U49A | 0.51
81 | A15G U41C U51A A65G | 0.65
82 | A15G U41G A64U | 0.13
83 | A15G U43A A47G | 0.64
84 | A15G U43A A57G | 0.76
85 | A15G U43A A75G | 1.17
86 | A15G U43A U80C | 1.1
87 | A15G U43C A57G | 0.24
88 | A15G U43C C50A U80A | 0.18
89 | A15G U43C U48C U54C | 0.2
90 | A15G U43C U72C | 0.85
91 | A15G U43C U76C | 0.5
92 | A15G U48C U58C | 0.15
93 | A15G U49C A57G G63U | 0.16
94 | A15G U49C C81U | 0.67
95 | A15G U49C U60A | 0.18
96 | A15G U49G G55U | 0.22

Row | Variant | self-cleavage
97 | A15G U51A U67A | 0.44
98 | A15G U51A U69C U78C | 0.47
99 | A15G U51C G55A U72A | 0.15
100 | A15G U54C A56G | 0.54
101 | A15G U54C A57G U58C U66C | 0.11
102 | A15G U54C A65G | 0.46
103 | A15G U54C A65G A75U | 0.34
104 | A15G U54C U60C A64G | 0.17
105 | A15G U54C U60C U69C A77G | 0.22
106 | A15G U58C A64G U80C | 0.27
107 | A15G U58C A65G | 0.27
108 | A15G U58C U66C | 0.11
109 | A15G U58C U72G | 0.17
110 | A15G U60C C62A U74C A75G | 0.05
111 | A15G U60C U72C | 0.75
112 | A15G U66A U69C | 0.21
113 | A15G U66C C68A U80A | 0.12
114 | A15G U67C C68U | 0.47
115 | A15G U67C U74C U80C | 0.2
116 | A15G U67G G70C | 0.17
117 | A15G U69A A77U | 0.29
118 | A15G U69C A77G | 0.32
119 | A15G U72A U80A | 0.9
120 | A15G U74A A77G | 1.23

Row | Variant | self-cleavage
121 | A15U A18G A56U C59U U67C | 0.15
122 | A15U A18G A64G | 0.13
123 | A15U A18G A65G | 0.1
124 | A15U A18G C29U U31A U48C | 0.08
125 | A15U A18G C62G U66C U69C | 0.11
126 | A15U A18G U25C U54C | 0.04
127 | A15U A18G U31C A45G A64U U72C U74C | 0.11
128 | A15U A18G U31C U69A | 0.06
129 | A15U A18G U58C A75C | 0.28
130 | A15U A18G U80C | 0.19
131 | A15U A18U A20C U26C | 0.29
132 | A15U A18U A20U U48C A56U U58A | 0.23
133 | A15U A18U A47G A57G | 0.3
134 | A15U A18U U25A A35U U54C | 0.2
135 | A15U A18U U26G U72C | 0.15
136 | A15U A18U U31C G52A U60C | 0.47
137 | A15U A18U U43C | 0.21
138 | A15U A18U U49A U54A A65U | 0.08
139 | A15U A20C U41C U51C | 0.25
140 | A15U A20G A28G U66G C71A | 0.09
141 | A15U A20G A35G U51G A64U U66C U69A | 0.19
142 | A15U A20G A45C A64G U78C | 0.08
143 | A15U A20G A45G | 0.38
144 | A15U A20G A45U U80A | 0.37

Row | Variant | self-cleavage
145 | A15U A20G A56G U67C A75C U80C | 0.78
146 | A15U A20G A56G U67C U80C | 0.77
147 | A15U A20G C34U U43C | 0.22
148 | A15U A20G C37U | 0.23
149 | A15U A20G C38U U49C G52C U69A | 0.04
150 | A15U A20G G63U U76A | 0.95
151 | A15U A20G U25C A56G A57G A65U | 0.05
152 | A15U A20G U31A A56U | 0.12
153 | A15U A20G U69A | 0.3
154 | A15U A20G U78A | 0.39
155 | A15U A20U A56U | 0.05
156 | A15U A20U U66C | 0.47
157 | A15U A21C U25C C40A C50U A56G | 0.19
158 | A15U A21G A28G C40A | 0.04
159 | A15U A21G A28U A56G U67C C71U | 0.14
160 | A15U A21G A45G U76A | 0.15
161 | A15U A21G A56G U67C C71U | 0.25
162 | A15U A21G C40U U60A C71A U74C A77G | 0.06
163 | A15U A21G G53A | 0.37
164 | A15U A21G U25C U26C A45G U51G | 0.21
165 | A15U A21G U43A A45G U72C | 0.3
166 | A15U A21G U48A | 0.07
167 | A15U A21U C34U U41C A57G C62U | 0.05
